Measurements as given in the supplement of paper PMC11417369.
Some of the results follow.

What follows are sequences tested on PfSIP2 AP2 domain 1 (GST-tagged) (assay: gcPBM binding intensity (ln(normalized median fluorescence intensity)); higher = stronger DNA binding).
Procedure, shortened: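 In this array assay, P. falciparum DNA-binding domains with a GST tag, expressed in E. coli, were applied for 1 h to primer-extended double-stranded 36-bp intergenic genomic probes and negative controls on an Agilent 4 × 180k array. Bound protein was visualised with Alexa488 anti-GST antibody at 488 nm. Binding intensity is the highest Masliner-normalised natural-log median intensity across replicate spots of either probe orientation.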

Row | Sequence | gcPBM binding intensity (ln)
1 | TTCATGCTTATATGTGCACACACAAAAGAAAAGAAA [CACACA_site1656] | 9.6
2 | AAATAATAAATTATAACACACATATATATATATATA [CACACA_site4045] | 9.27
3 | ATAATACAATTTATAACACACACACTATAATACATA [CACACA_site8338] | 7.1
4 | GGAAAGACAGTTCACAGTACCCAGTAACTCTACGGA [XGTACX_site2009] | 6.51
5 | CAAAAATAATAGAATACATGCAAAAATAAATGTATA [TGCATGCA_site196] | 6.77
6 | AAAAATAAAGGGTGTGCACACAAAAATATATATATA [CACACA_site1727] | 9.1
7 | ATAATATATTTAATCATACACACATTTATGTACCTA [CACACA_site1719] | 6.99
8 | TTTTTTTTTAAAACATAATAAAAAATAAAACAACCT [GTGCAC_negctrl_site92] | 7.42
9 | ATATATATATATATATGTACATATATATTGTTGATC [XGTACX_site8893] | 9.36
10 | ACATATTATTCAAGTGCACACTTTATATTTATGATT [CACACA_site3295] | 9.49
11 | ATTTAATTCGTACATACACACGCACATATATATATA [CACACA_site8415] | 8.85
12 | TACAATAATGATTGTTGTACATTATTGATATTTAAA [XGTACX_site2940] | 6.78
13 | TTTAATTTTTAATCAGTGCAATATTATATAATATAT | 7.85
14 | AAAAAAAAACAGAAAACACACAAATTATCTTAGAAT [CACACA_site309] | 6.6
15 | TATATGAAATATTATGCACACAATATATAATATGAT [CACACA_site936] | 7.33
16 | AATAATTCATCATATGCACACACAATACCAAAATGT [CACACA_site7945] | 8.05
17 | TCATTTTAATTAAAAGTGCAAAAAATAATATAACTA [GTGCAC_site9968] | 8.31
18 | ATTAATTCGTTTTGTACACACATAATGAATAATTTA [CACACA_site2235] | 7.06
19 | ATATATATATATAATACACACTTATGAAATGTCTAA [CACACA_site5077] | 9.27
20 | TTAATACATACATTCACACACACTAATTGTATATTT [CACACA_site9362] | 7.05
21 | TTCTTTTTTCGACACACACACACAAGAAGATATATA [CACACA_site7456] | 7.63
22 | ATACGAATAAATTTCGCATGCAGCATATATATCAAT [TGCATGCA_site612] | 6.88
23 | TGTACAAATATGTTGAAAATAAAATTTCAATATATT [XGTACX_negctrl_site13] | 6.55

Row | Sequence | gcPBM binding intensity (ln)
24 | AACGAAAATAAGAAAAGTACAAAAAATACCAAATAA [XGTACX_site6171] | 6.92
25 | ATATATGCATATATATGTACATATATATATATATAT [XGTACX_site7403] | 9.24
26 | AATAAATAAAAAATTACACACATATATATAAATATA [CACACA_site3434] | 6.73
27 | TAAATTATAAATTGCACACATATTTTTATATTTATA [CACACA_site2976] | 6.95
28 | ATATTTTTAGATTCAGAAAAAAGATTCAACTTACTC [CACACA_negctrl_site1357] | 6.76
29 | TATTTCATATGAAGAAGTACTATTAATAATTTCCTT [XGTACX_site6587] | 6.94
30 | ATAATTATATACCATGCACACAAATATTCATACAGG [CACACA_site9343] | 8.19
31 | AAGAACCATATTTAAACACACATACCTATATAAATA [CACACA_site7553] | 7.1
32 | TTATGCATATATTATGCATGTAGTTTTAAATCACAT [TGCATGCA_site104] | 7.03
33 | TATATACACATTTTTATACACACTTGTTTTATAAAA [CACACA_site8139] | 7.16
34 | AAAAAATACATACATACACACATATTTATTTATATA [CACACA_site6554] | 7.05
35 | GCACAAATATATATATATATATATATATATATATAT [GTGCAC_negctrl_site661] | 9.36
36 | TATATATATTTATAATGTACACATATATGTAAATAT [XGTACX_site3695] | 7.42
37 | TGCCCTAACCATACTACACACACTGCTCAAAATAGT [CACACA_site2219] | 7.26
38 | TACAATATAAAATACACACACACAAACATATATTTA [CACACA_site5941] | 7.07
39 | AAAATATATTATTATTGTACATATATTTTCATTTAC [XGTACX_site4593] | 7.01
40 | TAAATATATTTATAAGCACACACTAATAAACCCACA [CACACA_site390] | 7.4
41 | AATTTTTATACGGATACACACAAAAAAAAATAAAAA [CACACA_site897] | 7.1
42 | TTTATTTTGTTTATGGTGCATTTTATGTAAATATAT | 10.8
43 | AATAAATAAATAAATAAATAAATATATATATATATA [GTGCAC_negctrl_site330] | 9.48
44 | TAATGACAATAAAAATAAATAAATAAAAAAAAAAAA [TGCATGCA_negctrl_site321] | 6.63
45 | ATATATTATCTGTACACACACATATAAGGGATTATA [CACACA_site4180] | 7.27
46 | AAGGCATATATAATTTGTACATATTAAGAATTAGAT [XGTACX_site8660] | 7.11

Row | Sequence | gcPBM binding intensity (ln)
47 | AAGAAAATAAAAAGGTAAATATGTATAAATAAATAA [TGCATGCA_negctrl_site88] | 6.7
48 | TGAAATAAAATTATTTGTACATATCGGAAAAAAAAA [XGTACX_site7131] | 6.77
49 | TTTTTTGAAAATAAATGTACGAATTTTATATTTAAA [XGTACX_site2768] | 6.8
50 | AAATTACCCATCCATACACACATATTTTTTTTAATT [CACACA_site2189] | 7.08
51 | GATACAGATGGACACACACACATACATAAATACATA [CACACA_site5833] | 7.3
52 | TATACGTATACCTATACACACATATATTTATTTATA [CACACA_site6716] | 7.1
53 | TATATATATAACAGAATGCACTTTATATGTTCATAT [GTGCAC_site9880] | 8.35
54 | GATATCCTTATATTTGCACACACACCCAATAAAATG [CACACA_site1028] | 7.62
55 | AAAAAATACAGACACACACACACACGCATATAAATA [CACACA_site7644] | 7.15
56 | TAATAAATTCATAATTGTACATTGAAGTATTATGCA [XGTACX_site5121] | 6.96
57 | TTTTTTTATTTTGTATGTACATATCATTTGATATTC [XGTACX_site8449] | 6.98
58 | AGTAGCGGCGGTATCATGCACACGTATAGATTGTAA [CACACA_site1587] | 7.14
59 | ATTAAATCCGCACGCACACACACATATTAAGAAAAA [CACACA_site6062] | 7.84
60 | GTTGAAAAAAATATATGTACGTATATATGTATGTAT [XGTACX_site8201] | 7.35
61 | TTGTTTATATATATATGTACATATTTTAAGGCATCC [XGTACX_site6976] | 7.57
62 | CCACGTATACGATGCACACGTATGCTTTATATATAG [CACACA_site4108] | 7.32
63 | TTGGTAAATATATTTTGAATATAAGAAATATAGACG [CACACA_negctrl_site1634] | 7.13
64 | ATTATTACTATATGTGTACACATCAACTGGTTTGAT [CACACA_site5563] | 7.58
65 | TATTTTCAAAATGTTGTACACACAAAAAAAAAAAAA [CACACA_site8437] | 7.74
66 | ATATACTTTTCAATGTGTACTTATGAATATATATGT [XGTACX_site7972] | 7.08
67 | TATTTATAAATATGTGTGCACAATTTATTTTATAAT | 9.67
68 | TTATTTCTAACATGATGTACTTTTATATTATATAAT [XGTACX_site3574] | 7.01
69 | TTTTTTTTATATATCTGTACATATATATATATATAT [XGTACX_site8280] | 8.84

Row | Sequence | gcPBM binding intensity (ln)
70 | CACTTAAAAAGCTAACGTACAAATACACATATATAA [XGTACX_site1851] | 7.04
71 | AATATATATATAAATAATATACCTATATATTTTTTG [XGTACX_negctrl_site407] | 6.87
72 | AAAAACAATTTAATCACACATATATGTCACAAAGAT [CACACA_site5043] | 7.13
73 | ATATTAAATATTATCACACACATAATTATTTCCATA [CACACA_site2334] | 7.26
74 | ATATATATATATATATGTACATACATATTGTTTGGT [XGTACX_site2284] | 9.3
75 | CAAAATATTTTTTCCTGTACATAATTCCTATTTCAC [XGTACX_site3590] | 7.14
76 | ATATAATAATATGGTTGTACATAAATAACACATGAA [XGTACX_site6592] | 7.1
77 | TAATAATAGAAACACACACACATAGACATATATATA [CACACA_site1307] | 7.31
78 | ATGATTATACAAAATATACACACGTGTAGACAAATA [CACACA_site1175] | 7
79 | TATATTTCATTATATTGTACAAAATATATATATTAT [XGTACX_site4644] | 7.09
80 | CATTATATATATTACTAAAAATTTTACCCCTTAGCT [CACACA_negctrl_site302] | 6.88
81 | ATGTATATAAATATACGTACATAAATATAAGTATAG [XGTACX_site7155] | 7.24
82 | ATACATGAATAAATATGTACACATATAAAAACATAT [XGTACX_site2740] | 7.11
83 | TTTTTTCTTTTTATGTGTACTTATTTTATTTAATAA [XGTACX_site1080] | 6.83
84 | TTTTAACAAAACTAAATAATCATATATATAAGATAT [GTGCAC_negctrl_site298] | 6.71
85 | CATTTCTATATAAGCACACACGTGGAATTTTTTTTT [CACACA_site5537] | 6.86
86 | ATTATTTGAACAACAAAAAAAAAGAAAAGAAAAGAA [CACACA_negctrl_site1031] | 7.13
87 | AAATCGTAATATATTTGTACTTATTTGAAAAATCCA [XGTACX_site8141] | 7.01
88 | TCATATTATAAATAAATAAATAAATATATATATATA [CACACA_negctrl_site577] | 9.32
89 | AACACGCGCAGACACACACACACACGCACATATATA [CACACA_site7104] | 7.26
